Measurements reported in PubChem BioAssay AID624418 (National Center for Advancing Translational Sciences (NCATS), 2012).
The whole screen tested about 410,000 compounds, of which about 530 (0.13%) were called active. Inconclusive results, whose numbers are uncertain, are shown with a selection of clear calls. Calls follow the shape of the dose curve; as a rule, active = well fitted inhibition curve with a large enough effect; inconclusive = small, poorly fitted or top-dose-only effect, or another doubt; inactive = no such curve, though single readings can be large or run the other way. Potencies of inconclusive entries are doubtful fits and often do not repeat.

experiment: qHTS of GLP-1 Receptor Inverse Agonists: Cytotox Screen; conditions: HEK293 cAMP-luciferase reporter cells, luminescence, 24 h; activity change, negative = inhibition: at 38.3 µM (top of the series) unless noted
From the text: The overall goal of this project was to develop a novel assay for discovering small molecule ligands for class B1 G protein-coupled receptors (GPCRs). Very few agonists (or inverse agonists) with generally weak activity for this entire group of physiologically important receptors are known to date. To establish proof-of-principle that this critical bottleneck can be overcome with a suitable screening approach, our studies focused on the class B1 receptor for glucagon-like peptide-1 (GLP-1R), a potential therapeutic target for diabetes and neurodegenerative disease.
The assay was developed using a cell-based functional readout. Toward this goal, stably transfected HEK293 cell clones were established that co-express (i) a cAMP-responsive luciferase reporter gene, and (ii) constitutively active GLP-1R that upon ligand interaction inhibit (inverse agonists) the luciferase activity. In addition, two control cell lines were developed: (i) one that express only the cAMP-responsive reporter gene to enable initial exclusion of GLP-1R independent effects of candidate probes; and (ii) one with the reported gene cloned with another constitutively active orphan receptor GPR119 to enable exclusion of GLP-1R independent inhibitor effects of candidate inverse agonists.
To that end, this assay was optimized for 1536-well format and screened against the MLSMR. Then the same collection was run in this cytotoxicity assay where inhibition was the undesired outcome.
NIH Molecular Libraries Probe Production Network [MLPCN]
NIH Chemical Genomics Center [NCGC]
PI Name: Martin Beinborn, Tufts Medical Center
Six ul of cell suspension (200 cells/uL in DMEM + 10% Nu serum + 1% pen-strep) is dispensed in a white solid 1536-well plate. The plates are incubated for 12 hours at 37 deg C at 5% CO2 followed by addition of 23 nL compounds. After 24 hr incubation at 37 deg C and 5% CO2, 3 uL of luciferase assay detection reagent is added. A luminescence read is obtained on the PerkinElmer Viewlux after 12 min incubation at room temperature.
% is scaled to controls: 0 for no effect and ±100 for the full control effect; potency is read from the fitted curve at half-maximal effect.

| SMILES | Potency | activity change, negative = inhibition |
| --- | --- | --- |
| O=C(OC1CCN(c2ncc(C(F)(F)F)cc2Cl)CC1)c1cccc(C(F)(F)F)c1 | inconclusive: 10 µM [inhibitor, single point] |  |
| CCOC(=O)[C@@H]1[C@H]2COc3ccc(Br)cc3[C@@H]2N2C(=O)N(c3ccc(F)cc3)C(=O)[C@@]12C | inconclusive: 11.2 µM [inhibitor, single point] |  |
| O=C1c2ccccc2-c2onc3ccc(Oc4ccccc4)c1c23 | inconclusive: 7.08 µM [inhibitor, partial curve, poor fit] |  |
| COc1ccc(CCCNC(=O)C2(C)Cc3c(-c4cccc(C(N)=O)c4)ccnc3O2)cc1 (configuration not stated) | inconclusive: 14.1 µM [inhibitor, single point] |  |
| CC(C)(CC(=O)NCc1ccc(Cl)cc1Cl)CC1=NS(=O)(=O)c2ccccc2N1 | inconclusive: 28.2 µM [inhibitor, single point] |  |
| COc1ccccc1/C=C/CN1CCCC(CO)(CCc2ccccc2)C1 (configuration not stated) | inconclusive: 22.4 µM [inhibitor, single point] |  |
| CCNC(=O)CC1C(=O)N(c2ccc(F)cc2)C(=O)N1Cc1ccc(OC)c(OC)c1 (configuration not stated) |  | inactive: 14.4% |
| CC1(C)Cc2ccccc2-c2c1c(=O)n(Cc1ccccc1)c1nnnn21 |  | inactive: -20.8% |
| O=C(c1ccc(Br)o1)N1CCC(c2nc3ccccc3[nH]2)CC1 |  | inactive: 0.733% |
| Cc1cc([N+](=O)[O-])ccc1NCc1ccccc1 | inconclusive: 28.2 µM [inhibitor, single point] |  |
| COc1ccc(C(C[N+](=O)[O-])C2(c3ccc(OC)c(OC)c3)C(=O)c3ccccc3C2=O)cc1 (configuration not stated) | inconclusive: 10 µM [inhibitor, partial curve, poor fit] |  |
| COc1ccc(Nc2cc(C)nc3ccccc23)cc1 | inconclusive: 5.62 µM [inhibitor, full curve, poor fit] |  |
| CN1CCN(C2=C(Cl)C(=O)c3ccccc3C2=O)CC1 | inconclusive: 11.2 µM [inhibitor, partial curve, poor fit] |  |
| CCOC(=O)N1CCN(CC(=O)Nc2c(C(=O)OC)[nH]c3cccc(Cl)c23)CC1 |  | inactive: 5.87% |
| Cc1cccc(/C=C/C(=O)c2cc(Br)ccc(=O)c2O)c1 | inconclusive: 8.91 µM [inhibitor, partial curve] |  |
| NC(Cc1ccc(O)cc1)c1cn([C@@H](CCC(=O)O)C(=O)N2CCNCC2)nn1 (some centres not stated) | inconclusive: 28.2 µM [inhibitor, single point] |  |
| COc1ccc(Cl)cc1C(=O)NNC(=O)c1nn(C)c(=O)c2ccccc12 | inconclusive: 12.6 µM [inhibitor, single point] |  |
| CC1CC(C)(C)NC(=S)N1CCCC(=O)Nc1ccc(F)c(F)c1 (configuration not stated) | inconclusive: 28.2 µM [inhibitor, single point] |  |
| CC(C)Cc1cc(CN2CCC(CO)(Cc3cccc(C(F)(F)F)c3)CC2)[nH]n1 | inconclusive: 28.2 µM [inhibitor, single point] |  |
| CCC(=O)c1ccccc1OCCCN1CCC(Cc2ccccc2)CC1 | inconclusive: 11.2 µM [inhibitor, partial curve, poor fit] |  |
| O=C1Nc2c(Cl)cc(Cl)cc2C1=O | inconclusive: 15.8 µM [inhibitor, partial curve, poor fit] |  |
| N#Cc1cnn2ccc(-c3cc(N4CCOCC4)ccc3[N+](=O)[O-])nc12 | inconclusive: 12.6 µM [inhibitor, single point] |  |
| CN(C(=O)c1cccc(NC(=O)Cc2ccc(NC(=O)C3CCN(C(=O)CCc4ccccc4)CC3)cc2)c1)C1CCCCC1 |  | inactive: -9.03% |

| SMILES | Potency | activity change, negative = inhibition |
| --- | --- | --- |
| CC(=O)NC(c1cccc(F)c1)c1nc(-c2cnn(C)c2)cs1 (configuration not stated) |  | inactive: 2.04% |
| CN1CCN(CCCC(=O)c2ccc(C3CCCC3)cc2)CC1 | inconclusive: 28.2 µM [inhibitor, single point] |  |
| CCOc1ccc(-c2nnc(SCC(=O)Nc3ccc4c(c3)c3ccccc3n4CC)n2N)cc1 | inconclusive: 28.2 µM [inhibitor, single point] |  |
| CCN(CC)CCCNC1=C(Cl)C(=O)c2ccccc2C1=O | inconclusive: 5.62 µM [inhibitor, full curve, poor fit] |  |
| CCN(CC)S(=O)(=O)c1cccc(NC(=O)Nc2cccc(C(F)(F)F)c2)c1 | inconclusive: 11.2 µM [inhibitor, partial curve, poor fit] |  |
| O=C(NCCc1c[nH]c2ccccc12)C(=O)NCC1OCCCN1S(=O)(=O)c1ccccc1 (configuration not stated) | inconclusive: 1 µM [inhibitor, full curve, poor fit] |  |
| O=C(NCC1CCCO1)c1cc(-c2ccccc2)nc2ccc(Br)cc12 (configuration not stated) |  | inactive: -3.77% |
| Cc1cccc(CSCCNC(=S)Nc2ccccc2)c1 | inconclusive: 28.2 µM [inhibitor, single point] |  |
| O=C(Cn1cnc2scc(-c3cccc([N+](=O)[O-])c3)c2c1=O)NCc1ccco1 |  | inactive: -18.2% |
| CCCCCCSc1cccc(-c2nc3cc(C)ccn3c2NCc2ccccc2)c1 | inconclusive: 5.01 µM [inhibitor, partial curve] |  |
| N#CC1(NC(=O)COC(=O)C23CC4CC(CC(O)(C4)C2)C3)CCCCC1 |  | inactive: 2.16% |
| CC1(C(=O)Nc2ccccc2Cc2ccccc2)CCN1Cc1ccccc1Cl (configuration not stated) |  | inactive: 1.67% |
| COc1ccc(NC(=O)C2CCC(CNS(=O)(=O)c3csc(C(N)=O)c3)CC2)cc1OC (configuration not stated) | inconclusive: 12.6 µM [inhibitor, single point] |  |
| CC(=O)OC(COc1ccccc1)Cn1cnc2ccccc21 (configuration not stated) |  | inactive: 3.33% |
| COc1cccc(NC(=S)NC(=O)/C=C/c2ccco2)c1 | inconclusive: 11.2 µM [inhibitor, single point] |  |
| O=C1OC(c2ccc3ccccc3c2O)(c2ccc3ccccc3c2O)c2ccccc21 | inconclusive: 10 µM [inhibitor, partial curve, poor fit] |  |
| Fc1ccc2[nH]c3c(N4CCc5ccccc5C4)ncnc3c2c1 | inconclusive: 28.2 µM [inhibitor, single point] |  |
| Cc1cc(-c2n[nH]c(=S)n2/N=C/c2ccc(Cl)c([N+](=O)[O-])c2)n[nH]1 | inconclusive: 28.2 µM [inhibitor, single point] |  |
| COc1cccc(C(=O)Nc2nc(-c3nnn(-c4cc(C)ccc4C)c3C)ns2)c1 |  | inactive: 4.33% |
| Cn1cc(S(=O)(=O)N2CCCC2)cc1C(=O)O |  | inactive: -13.1% |
| CCOC(=O)c1cc2c(N)c(C(=O)c3ccc(Br)cc3)sc2[nH]c1=O |  | inactive: -1.86% |
| CCOc1ccc(NC(=O)/C(C#N)=C/c2cn(CC(=O)O)c3ccccc23)cc1 | inconclusive: 12.6 µM [inhibitor, single point] |  |
| COc1ccc(C(=O)Nc2sc3c(c2C#N)CCN(C(C)=O)C3)cc1 | inconclusive: 12.6 µM [inhibitor, partial curve, poor fit] |  |

| SMILES | Potency | activity change, negative = inhibition |
| --- | --- | --- |
| Cc1ccccc1NC(=S)N/N=C/C(C)c1ccccc1 (configuration not stated) | inconclusive: 28.2 µM [inhibitor, single point] |  |
| O=C(C[N+]1(CC#Cc2ccccc2)CCOCC1)c1ccccc1 | inconclusive: 0.794 µM [inhibitor, full curve, poor fit] |  |
| O=C(Nc1cccc(-c2ccc(N3CCCCC3)nn2)c1)c1ccc(Br)o1 | inconclusive: 20 µM [inhibitor, single point] |  |
| Cc1cccc(CCn2c(=O)c3ccccc3n(Cc3ccccc3C)c2=O)c1 |  | inactive: 7.19% |
| CC(C)c1ccc(NNC(=O)C2CCC2)cc1 | inconclusive: 28.2 µM [inhibitor, single point] |  |
| O=C(NCC1CCCO1)c1csc2c1CCCCC2 (configuration not stated) |  | inactive: 9.02% |
| COCCNC(=O)c1ccc2c3n(nc2c1)-c1ccc(Cl)cc1CO3 | inconclusive: 17.8 µM [inhibitor, partial curve, poor fit] |  |
| CCN(CC)S(=O)(=O)c1ccc(OC)c(NC(=S)Nc2ccc(C)c(C)c2)c1 | inconclusive: 11.2 µM [inhibitor, single point] |  |
| Cc1ccc(S(=O)(=O)CCC(=O)c2ccc(O)cc2O)cc1 | inconclusive: 10 µM [inhibitor, partial curve] |  |
| COc1cccc(/C=C/C(=O)c2ccc3c(c2)OCCO3)c1OC | inconclusive: 10 µM [inhibitor, partial curve] |  |
| COc1cc(NC(=O)c2cc(C3CC3)nc3c2c(C)nn3-c2ccc(C)cc2)cc(OC)c1 |  | inactive: 6.66% |
| COc1ccc(-c2nc(S(=O)(=O)c3ccccc3)c(N3CCOCC3)o2)cc1 |  | inactive: 18.1% |
| Nc1nonc1-n1nnc(C(=O)N/N=C/c2ccoc2)c1CSc1ccc(Cl)cc1 |  | inactive: 4.37% |
| Cc1ccc2c(c1)c1c3n2CCN(C(=O)CN2CCN(C)CC2)C3CCC1 (configuration not stated) | inconclusive: 28.2 µM [inhibitor, single point] |  |
| COc1ccc2oc(C(=O)OCC(=O)N3CC(C)CC(C)C3)c(C)c2c1 (configuration not stated) |  | inactive: 10.2% |
| COc1cc(-c2ccc3oc(-c4cccc(C)c4)c(C#CC4(O)CCCCC4)c3c2)cc(OC)c1OC |  | inactive: 2.42% |
| Cc1ccc(S(=O)(=O)N2CCCc3cc(NC(=O)c4ccccc4Cl)ccc32)cc1 |  | inactive: 0.157% |
| COC(=O)c1cc2ccsc2n1CC(=O)N1CCCc2ccccc21 | inconclusive: 11.2 µM [inhibitor, single point] |  |
| CCCn1c(=O)c2ccccc2n2c(SCCOc3ccccc3)nnc12 | inconclusive: 3.16 µM [inhibitor, full curve] |  |
| CC(C)S(=O)(=O)c1nsc2nc(=O)c(/C=C3\C=Nc4ccccc43)c(N)n12 | inconclusive: 0.891 µM [inhibitor, full curve, poor fit] |  |
| O=[N+]([O-])c1ccc(C=NN2CCOCC2)s1 | inconclusive: 10 µM [inhibitor, partial curve, poor fit] |  |
